# PubChem BioAssay AID761 (NMMLSC, 2007)
# Hit rate of the full screen: of about 190,000 compounds, about 400 (0.21%) were called active. The shares of active, inactive and inconclusive entries below differ from those in the screen.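 Rule for the calls: active = percent activity GTP binding at least 20 points away from the 100% baseline, either down as inhibitor or up as activator; inconclusive = compound flagged as likely green fluorescent from well-wide comparison; inactive = the rest.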
# Target: Cell division control protein 42 homolog (Homo sapiens) (UniProt P60953)
# UniProt P60953, sequence (P60953 whole entry, looked up): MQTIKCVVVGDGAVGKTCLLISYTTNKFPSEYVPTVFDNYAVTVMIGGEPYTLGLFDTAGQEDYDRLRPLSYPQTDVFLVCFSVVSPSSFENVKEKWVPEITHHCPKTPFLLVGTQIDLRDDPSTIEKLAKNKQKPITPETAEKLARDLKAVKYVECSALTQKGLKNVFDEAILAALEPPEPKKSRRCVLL
# Experiment: wildtype Cdc42 fluorescent GTP binding changes, either direction – biochemical, multiplex bead flow cytometry, Bodipy-GTP, primary screen (AID 761);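 note: median bead fluorescence of bound Bodipy-FL-GTP at 100 nM; 0% = excess unlabeled GTP control and 100% = no compound control; below 100% means less GTP binding so inhibitor and above means activator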
# Settings: GST-Cdc42 beads, at 10 µM, actives lie on both sides
row,SMILES,percent activity (GTP binding)
1,Cc1cccc(NC(=O)c2ccc([N+](=O)[O-])cc2Cl)n1,inconclusive: 106%
2,Cc1ccc(C(=O)n2nc(-n3cccc3)c3c(C)cc(C)nc32)cc1,inconclusive: 90%
3,Cc1ccc(-c2cc(C(=O)NCc3cccs3)no2)cc1,inconclusive: 90%
4,Cc1sc2nc3c4ccccc4c(NCc4ccco4)nn3c(=O)c2c1C,active: 75%
5,CCOc1ccc(C2CC(c3c(O)c4ccccc4oc3=O)=NN2c2ccccc2)cc1OC (stereo not given),inactive: 94%
6,COc1ccc(C(=O)CC(Nc2ccc([N+](=O)[O-])cc2)c2ccc(Cl)cc2)cc1 (stereo not given),inactive: 94%
7,O=C1Nc2ncccc2OC1CCO (stereo not given),inactive: 104%
8,O=C(COc1cccc(Cl)c1)Nc1nc(-c2ccc(S(=O)(=O)N3CCOCC3)cc2)cs1,inconclusive: 103%
9,CN(CCCNC(=O)c1cn(C)c2ccc(S(=O)(=O)N(C)C)cc2c1=O)c1ccccc1,inconclusive: 105%
10,O=C(O)C1C2C=CC(C2)C1C(=O)N1CCOCC1 (stereo not given),active: 39%
11,CC(C)(C)C1=C(C#N)C(c2cccnc2)C(C#N)=C(N)O1 (stereo not given),inconclusive: 102%
12,Cc1ccc(-c2cc(=O)[nH][nH]2)c(C)c1,inconclusive: 104%
13,COc1ccc(-c2nnc(S/C(=C/c3ccc(Cl)cc3)C(=O)O)o2)cc1,active: 74%
14,Cc1ccc(N=C2S/C(=C\c3cn(CC(=O)O)c4ccccc34)C(=O)N2C)cc1,inconclusive: 87%
15,C=CCNc1nc(N)c(C(=C(C#N)C#N)c2ccc(Br)cc2)s1,inconclusive: 89%
16,CCN(CC)C(=O)CSc1nc2ccccc2c(=O)n1-c1cccc(OC)c1,inconclusive: 105%
17,COc1cc(OC)nc(Oc2cc(/C=N/O)ccc2OC)n1,inactive: 99%
18,CSc1nnc(C)c(/C=C/Nc2ccc(C)cc2)n1,inconclusive: 72%
19,CCOC(=O)C(/C(C)=N/NC(=O)C1CC1c1ccccc1)C(C)C (stereo not given),inactive: 100%
20,Cc1[nH]c2ccccc2c1C(=O)NS(=O)(=O)Nc1ccc(Cl)cc1,inactive: 95%

row,SMILES,percent activity (GTP binding)
1,COc1ccc(S(=O)(=O)N2CCN(CC(=O)Nc3cccc(F)c3)CC2)cc1,inconclusive: 112%
2,CC(C)(C)NC(=O)Cn1cnc2cc([N+](=O)[O-])ccc2c1=O,inconclusive: 87%
3,O=C(Nc1nnc(CSCc2ccccc2F)s1)c1cccc([N+](=O)[O-])c1,inconclusive: 91%
4,NC(=O)C1(N2CCCCC2)CCN(C2CC(=O)N(CCc3ccccc3)C2=O)CC1 (stereo not given),inconclusive: 92%
5,COc1ccc(C(=O)Nc2nc3nccc(-c4ccccc4)n3n2)cc1,inactive: 102%
6,Nc1ccc(C(=O)Nc2ccc3nc(-c4ccncc4)[nH]c3c2)cc1,inconclusive: 83%
7,CC(=O)Nc1cccc(NS(=O)(=O)c2cccc3nsnc23)c1,inconclusive: 103%
8,COc1cc2[nH]c(=S)nc(NCc3cccs3)c2cc1OC,active: 61%
9,O=S(=O)(Cc1ccccc1)NCC1CCCO1 (stereo not given),inactive: 105%
10,Cc1nn(CC(=O)c2ccc(Cl)cc2Cl)c(C)[n+]1N,inconclusive: 105%
11,COCCCNC(=S)NCCCNc1nc2cc3c(cc2cc1C#N)OCO3,inconclusive: 94%
12,CCOC(=O)c1ccc(NC(=O)C2(c3ccccc3)CCOCC2)cc1,inconclusive: 102%
13,CN(C(=O)CSc1ncnc2scc(-c3ccccc3)c12)C1CCS(=O)(=O)C1 (stereo not given),inconclusive: 106%
14,CC1Cc2ccccc2N1C(=S)NC(=O)c1ccco1 (stereo not given),inconclusive: 92%
15,CC1=C(C)[N+](=O)C2(O)CCCCC2(C)N1[O-] (stereo not given),inconclusive: 105%
16,Cc1ccc(-c2cn3cccc(C)c3n2)cc1,inactive: 109%
17,O=C(CSc1n[nH]c(=O)[nH]c1=O)N/N=C/c1ccccc1,inconclusive: 203%
18,C=CC#CC[N+]1(CC#Cc2ccccc2)CCOCC1,inactive: 107%
19,Cc1onc(-c2ccccc2Cl)c1C(=O)NCc1ccc(N2CCCC2=O)cc1,inconclusive: 105%
20,COCCCNC(=O)c1cc(C(=O)c2ccccc2Br)c[nH]1,inconclusive: 92%

row,SMILES,percent activity (GTP binding)
1,Oc1c(CN2CCOCC2)ccc2ccccc12,inconclusive: 125%
2,NNC(=O)[C@H]1C[C@@H]1c1ccccc1,inconclusive: 108%
3,Cc1ccc(NC(=O)/C(C#N)=C/c2cc(C)n(-c3ccc(N4CCOCC4)c([N+](=O)[O-])c3)c2C)c(C)c1,inconclusive: 113%
4,Cc1sc2nc(SCC(=O)N3CCCCC3)[nH]c(=O)c2c1C,inconclusive: 100%
5,O=C(Nc1cnn(C23CC4CC(CC(C4)C2)C3)c1)c1cnn2cccnc12,active: 129% [activator]
6,CC(C)n1c2ccccc2c2cc([N+](=O)[O-])ccc21,inconclusive: 105%
7,Cc1ncc(CC(=O)n2cc(C(=O)c3cc(F)ccc3O)cn2)s1,inactive: 97%
8,OCCC1CN(Cc2ccccc2-c2ccco2)CCN1Cc1ccsc1 (stereo not given),inactive: 92%
9,O=C(CCCN1C(=O)/C(=C/c2ccccc2Cl)SC1=S)NNC(=O)c1ccccc1Cl,inactive: 97%
10,COc1ccc(-c2nc3cc(NC(=O)Cc4ccc(OC)c(OC)c4)ccc3o2)cc1,inconclusive: 99%
11,N#Cc1c(-c2ccccc2)nc2n1CCS2,inactive: 90%
12,CCOC(=O)n1c(=O)n(C)c2ccc(Cl)cc21,inconclusive: 96%
13,C(=N\Nc1nn2cnnc2c2ccccc12)/c1ccco1,active: 77%
14,COc1ccc(CCNS(=O)(=O)c2ccc3c(c2)CCN3C(=O)C2CC2)cc1OC,inconclusive: 105%
15,Cn1c2c(c(=O)n(C)c1=O)CN(CCc1ccccc1)CN2,inconclusive: 107%
16,Cc1ccccc1C1(CCN2CCCCC2)CCOC(C)(C)C1 (stereo not given),inconclusive: 103%
17,CCn1c(COc2cc(C)ccc2C(C)C)nnc1SCC(=O)Nc1nccs1,inactive: 95%
18,Cc1cc(N2C(=O)C3CC=CCC3C2=O)cc(C)c1Br (stereo not given),inactive: 104%
19,CC(C)c1cc(C(=O)Nc2ccc3c(c2)OCO3)no1,inconclusive: 104%
20,COc1ccc(-n2cccc2/C=C2/NC(=O)N(c3cccc(Cl)c3)C2=O)cc1,inactive: 101%
